# Assay results published in PubChem BioAssay AID1508649 (National Center for Advancing Translational Sciences (NCATS), 2021).
# Hit rate of the full screen: of about 43,000 compounds, about 830 (1.9%) were called active. Inconclusive means that the source gave no clear call. Such entries were picked first, then a sample of the others. The calls were made as follows: active = clear falling dose curves in both reporters; inconclusive = both reporters move, but less clearly or upward; inactive = either reporter flat; the % is the NLuc reporter signal. Potencies of inconclusive entries are left out as doubtful fits.
# Assay: Cell-based coincidence reporter assay to measure PMP22 gene transcription in S16 Pmp22-F2sN cells - Primary screen
# Conditions: S16 Pmp22-F2sN Schwann cells (luciferase reporters placed in the Pmp22 gene), FLuc/NLuc coincidence luminescence, 24 h; measured here: NLuc reporter readout, at 57.5 µM (top of the series)
# Outline: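 S16(c9) Schwann cells with FLuc/NLuc coincidence reporter in the Pmp22 3' UTR; compounds pin-transferred, 24 h at 37C. Dual-luciferase read: FLuc first, then NLuc after Stop&Glo, each 10 min at room temperature.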
# Potency is read from the fitted curve at half-maximal effect; tags tell the direction and shape of the fitted curve.
row,SMILES,Potency
1,CCOc1ccc(S(=O)(=O)N2CCC(n3c(C)nc4cccnc43)CC2)cc1,"inconclusive [phenotype inactive, partial curve]"
2,CC(=O)N1CCc2c(sc(NC(=O)CSc3ccc(F)cc3)c2-c2nc3ccccc3s2)C1,"inconclusive [phenotype inactive, single point]"
3,COc1ccccc1-c1c(C)nn2c(N3CCN(c4ccc(F)cc4)CC3)cc(C)nc12,"inconclusive [phenotype inactive, single point]"
4,COCCCNC(=O)c1ccc(Cn2c(=O)c3ccccc3n(Cc3ccc(Cl)cc3)c2=O)cc1,active: 11.3 µM
5,CCOC(=O)c1ccccc1NC(=O)c1c(C)oc2ncnc(N3CCOCC3)c12,"inconclusive [phenotype inactive, single point]"
6,COc1ccc(OC)c(NC(=O)C2=C(C)C(=O)OC23CCN(C(C)C)CC3)c1,"inconclusive [phenotype inactive, single point]"
7,CCCCC(CC)CNC(=O)CCCCCn1c(=O)[nH]c2ccsc2c1=O (configuration not stated),"inconclusive [phenotype inactive, partial curve]"
8,COc1cc(Nc2nc(-c3ccc(OC)c(OC)c3)nc3ccccc23)cc(OC)c1,"inconclusive [phenotype inactive, partial curve]"
9,CSc1ccc(CCNC(=O)c2csc3c2CCCCC3)cc1,inactive
10,CN(C)c1ccc(CNC(=O)c2ccc3nc(Cc4ccccc4)oc3c2)cc1,"inconclusive [phenotype inactive, partial curve]"
11,CC(C)c1ccc(NC(=O)c2cc3c(=O)[nH]c4ccccc4c3n2C)cc1,"inconclusive [phenotype inactive, partial curve, poor fit]"
12,CCCCc1nn2c(=O)cc(COC(=O)CNC(=O)COc3ccc(C)cc3)nc2s1,"inconclusive [phenotype inactive, partial curve, poor fit]"
13,CCOC(=O)C1=C(CN2CCN(c3ccc(C)cc3C)CC2)NC(=O)NC1c1ccc(OC)cc1 (configuration not stated),"inconclusive [phenotype inactive, partial curve, poor fit]"
14,CCOc1ccc(-c2cn3nc(CC(C)C)sc3n2)cc1,inactive
15,COc1ccc(OC)c(NCc2cccn2-c2nnc(N3CCCCC3)s2)c1,"inconclusive [phenotype inactive, single point]"
16,CCC1CCCCN1CCCNC(=O)c1[nH]c2ccccc2c1Sc1ccc(Cl)cc1 (configuration not stated),"inconclusive [phenotype inactive, single point]"
17,COc1cccc(C(=O)NCCc2csc(-c3ccc(Cl)cc3)n2)c1,"inconclusive [phenotype inactive, single point]"
18,COC(=O)c1c(NC(=O)CCCOc2ccc(C(C)(C)C)cc2)sc2c1C(C(=O)OC)CC2 (configuration not stated),"inconclusive [phenotype inactive, single point]"
19,COc1ccc(OC)c(NC(=O)c2c(N3CCCC3=O)c3cc(OC)ccc3n2C)c1,"inconclusive [phenotype inactive, single point]"

row,SMILES,Potency
1,CCCCNC(=O)C1CCN(S(=O)(=O)CCC)CC1,inactive
2,COc1ccc(-c2c(C)c3ccc(O)c(CN4CCOCC4)c3oc2=O)cc1,"inconclusive [phenotype inactive, partial curve, poor fit]"
3,CCOc1cc(C(=O)NCc2ccc3c(c2)CCN3C(=O)c2ccc(F)cc2)cc(OCC)c1OCC,"inconclusive [phenotype inactive, single point]"
4,COc1ccc(OC)c(CCNC(=O)CCc2cn(Cc3cc(C)ccc3C)c3ccccc23)c1,"inconclusive [phenotype inactive, single point]"
5,O=C(NCCn1cc(SCc2ccccc2F)c2ccccc21)c1cccs1,"inconclusive [phenotype inactive, single point]"
6,CCc1ccc(CNC(=O)CSc2c3c(nc4ccc(Cl)cc24)CCCC3)cc1,active: 6.23 µM
7,Cc1ccc(NC(=O)c2cccc(N3CCCS3(=O)=O)c2)cc1C,inactive
8,CCn1c(=O)c2cc(C(=O)N3CCN(c4cccc(OC)c4)CC3)sc2c2ccccc21,inactive
9,O=C(CSc1nnc2scc(-c3ccc(Cl)cc3)n12)Nc1cccc(C(F)(F)F)c1,"inconclusive [phenotype inactive, single point]"
10,CCOc1ccc(Nc2nc(C)c(NC(=O)c3ccc(C)cc3)c(Nc3ccc(OCC)cc3)n2)cc1,"inconclusive [phenotype inactive, single point]"
11,O=C1COc2ccc(-c3cc(-c4ccc(F)cc4)c4c(n3)-c3cc(Cl)ccc3OC4)cc2N1,inactive
12,COc1ccccc1CNS(=O)(=O)c1cc(Br)cc2c1N(C(C)=O)C(C)C2 (configuration not stated),"inconclusive [phenotype inactive, partial curve, poor fit]"
13,O=C(NCc1ccc(F)cc1)c1ccc(CS(=O)Cc2ccc(Cl)cc2)o1 (configuration not stated),"inconclusive [phenotype inactive, single point]"
14,COc1ccc(OCc2ccc(-c3nc(C#N)c(NCc4ccccc4)o3)o2)cc1,inactive
15,Cc1nn(C)c2c1c(C(F)(F)F)cc(=O)n2C(C)C(=O)NCCc1ccc(Cl)cc1 (configuration not stated),"inconclusive [phenotype inactive, single point]"
16,Cc1ccccc1NC(=O)c1c(NC(=O)c2ccncc2)sc2c1CCC(C(C)(C)C)C2 (configuration not stated),"inconclusive [phenotype inactive, single point]"
17,CC1CCN(S(=O)(=O)c2ccc(C(=O)Nc3nc4ccc(F)cc4s3)cc2)CC1,"inconclusive [phenotype inactive, partial curve, poor fit]"
18,O=C(NCCc1ccc(Cl)cc1)c1ccc(Cn2c(=O)[nH]c3ccccc3c2=O)cc1,active: 3.18 µM
